Some of the results follow. These are further read-outs of the screen, such as a control signal, another cell line or another target. No call is given for them.
Key:
Assay in all cases: Primary Screen for Target Class Profiling of Small Molecule Inhibitors of Methyltransferases
[1] = target: Glycine N-methyltransferase (Homo sapiens) (UniProt Q14749); conditions: purified enzyme, MTase-Glo SAH luminescence; measured here: GNMT inhibition; at 40 µM; stronger effect = lower value
How it was run: (§1)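 Each enzyme was reacted with SAM and its substrate, with compounds tested once at 40 uM; SAH formed was read by MTase-Glo luminescence.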

[2] = target: Guanidinoacetate N-methyltransferase (Homo sapiens) (UniProt Q14353); conditions: purified enzyme, MTase-Glo SAH luminescence; measured here: GAMT inhibition; at 40 µM; stronger effect = lower value
How it was run: as §1

[3] = target: Histamine N-methyltransferase (Homo sapiens) (UniProt P50135); conditions: purified enzyme, MTase-Glo SAH luminescence; measured here: HNMT inhibition; at 40 µM; stronger effect = lower value
How it was run: as §1

[4] = target: Nicotinamide N-methyltransferase (Homo sapiens) (UniProt P40261); conditions: purified enzyme, MTase-Glo SAH luminescence; measured here: NNMT inhibition; at 40 µM; stronger effect = lower value
How it was run: as §1

[5] = target: Phenylethanolamine N-methyltransferase (Homo sapiens) (UniProt P11086); conditions: purified enzyme, MTase-Glo SAH luminescence; measured here: PNMT inhibition; at 40 µM; stronger effect = lower value
How it was run: as §1
% is set by controls: 0 for no effect and ±100 for the full control effect.

SMILES | activity change, negative = inhibition [1] | activity change, negative = inhibition [2] | activity change, negative = inhibition [3] | activity change, negative = inhibition [4] | activity change, negative = inhibition [5]
CCCN1C(=O)c2c(C(=O)NCc3ccc(OC(C)C)cc3)ncn2CC1(C)C(=O)NCc1ccc(F)cc1 (stereo not given) | 2.51% | 0% | 3.32% | 4.45% | 5.81%
CCOC(=O)C1CCCN(C(=O)C2CCc3nnc(C4CCN(C(C)=O)CC4)n32)C1 (stereo not given) | -3.07% | -0.405% | 0.062% | 0.302% | 1.97%
CCN1CCN(C(=O)C2CCc3ncc(-c4ccsc4)n3C2)CC1 (stereo not given) | -2.81% | -1.85% | -4.72% | -6.86% | -2.27%
Brc1c(Br)c(Br)c2[nH]cnc2c1Br | -61.7% | -19.9% | -32.2% | -41.9% | -42.4%
O=c1cc(-c2ccncc2)oc2c(-c3cccc(CO)c3)nccc12 | -25.9% | -9.33% | -26.9% | -16.5% | -23%
COC(=O)[C@H](NC(=O)[C@@H]1C[C@H](NC(=O)Nc2ccc(OC)cc2)CN1C(=O)c1cccn1C)C(C)C | 3.15% | -3.13% | 1.09% | -5.26% | 14.6%
O=C(NCc1ccc(OC(F)(F)F)cc1)C1c2ccccc2C(=O)N1C1CCOCC1 (stereo not given) | 2.05% | -1.93% | 9.41% | -14.9% | 2.32%
Cc1ccc(CCNC(=O)Cn2c(=O)oc3cc(S(=O)(=O)NC4CCCC4)ccc32)cc1 | -1.49% | 2.85% | -0.925% | 6.27% | -6.79%
Cc1cccc(N2C(=O)c3cc4sccc4n3CC2(C)C(=O)NC2CCCCC2)c1C (stereo not given) | 3.03% | 0% | 6.6% | 10.3% | -0.139%
O=C(NC1CC1)c1nc(-c2ccc(F)cc2)c2cnccn12 | -26.9% | -13.4% | -11.3% | -29.2% | -8.52%
CCOc1ccc(CNC(=O)Cn2ccc3cc(S(=O)(=O)N4CCC(C)CC4)ccc32)cc1 | 1.75% | 1.96% | -0.324% | -4.77% | -2.61%
O=C(Cc1c[nH]c2ccccc12)NCCc1c[nH]c2ccc(Cl)cc12 | -12.1% | 1.24% | -11.2% | -8.34% | -9.4%
CC1(C(=O)NC2CCCC2)Cn2c(cc3ccccc32)C(=O)N1CCc1ccccc1 (stereo not given) | -1.96% | 4.03% | -5.76% | -6.67% | 0.349%
CC(C)OCCCn1c(=O)c2ccccc2n2c(SCC(=O)Nc3cccc(Cl)c3)nnc12 | -7.14% | 4.42% | -1.56% | -8.09% | -2.81%
Cc1ccc(C)c(CN2CC(=O)N(Cc3cccc(F)c3)c3ccccc3S2(=O)=O)c1 | -9.65% | -2.81% | -11.6% | -18.9% | -12.8%
Cc1ccc(NC(=O)Cn2nc3n(Cc4ccccc4)c(=O)c4ccccc4n3c2=O)cc1C | 4.91% | 0% | 8.85% | 2.04% | 1.75%
OCc1ccc(CN2C[C@H](O)C[C@H]2c2nc(-c3ccc(F)cc3)no2)o1 | -9% | -0.82% | -1.56% | 3.04% | -1.54%
